# Reference: article PMC6919601, “Identification of Plasmodium dipeptidyl aminopeptidase allosteric inhibitors by high throughput screening” (PLoS ONE, 2019)
# Values joined by “and” are separate entries in the source; they are usually repeats but may differ in a detail not shown here. Equal values may be shown once. In all, about 110,000 compounds went through this assay and about 230 (0.21%) showed an effect of 50% or more. The list shows a part of the results.
# Target: DPAP1 (Plasmodium falciparum, UniProt Q8IIJ9)
# Sequence (Q8IIJ9 whole entry, looked up): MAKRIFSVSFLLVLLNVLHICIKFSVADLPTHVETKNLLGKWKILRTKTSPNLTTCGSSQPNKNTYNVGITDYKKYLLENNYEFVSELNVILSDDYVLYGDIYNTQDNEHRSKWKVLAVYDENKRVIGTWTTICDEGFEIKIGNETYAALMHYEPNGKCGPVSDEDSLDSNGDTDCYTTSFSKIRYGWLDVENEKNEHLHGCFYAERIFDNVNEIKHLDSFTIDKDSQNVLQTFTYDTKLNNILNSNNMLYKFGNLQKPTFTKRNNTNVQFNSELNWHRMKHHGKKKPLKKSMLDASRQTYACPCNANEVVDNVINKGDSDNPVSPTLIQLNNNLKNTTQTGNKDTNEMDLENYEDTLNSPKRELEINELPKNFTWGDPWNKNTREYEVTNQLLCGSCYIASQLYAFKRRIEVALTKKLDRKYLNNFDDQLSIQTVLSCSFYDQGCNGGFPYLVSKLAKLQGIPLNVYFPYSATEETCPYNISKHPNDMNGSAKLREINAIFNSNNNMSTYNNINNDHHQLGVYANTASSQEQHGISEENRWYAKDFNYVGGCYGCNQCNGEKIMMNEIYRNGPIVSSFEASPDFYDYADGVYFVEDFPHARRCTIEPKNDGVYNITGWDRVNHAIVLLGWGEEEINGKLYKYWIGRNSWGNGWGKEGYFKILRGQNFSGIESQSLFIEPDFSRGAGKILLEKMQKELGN
# Assay: primary screen, percent inhibition; read by cleavage of a fluorogenic dipeptide substrate; higher = more effect of the substance
# Parameters: species or system P. falciparum D10 trophozoite lysates; single well
# 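Note: 30 min substrate incubation versus DMSO and 10 µM JCP410 controls.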
row,SMILES,% Inhibition @ 10 uM
1,Cc1onc(-c2ccccc2)c1C(=O)Nc1ccc(Cl)cc1Cl,-1.88%
2,Cc1ccccc1OCC(=O)Nc1ccc(Br)c(Cl)c1,-2.19%
3,CC(C)NS(=O)(=O)c1ccc(OCC(=O)N2CCN(C)CC2)cc1,-2.9%
4,NC(=O)C1CCCCc2c1[nH]c1ccc(Cl)cc21 (stereo not shown),-1.2%
5,COc1ccc(OC)c(CCNC(=O)Cn2cc3c(n2)CCCCC3)c1,-11.1%
6,O=C(Nc1ccc(S(=O)(=O)NC2CCCCC2)cc1)Nc1cccc(Cl)c1,1.83%
7,OC1=C2C(=Nc3nc(SCc4ccccc4)nn3C2c2ccc(O)cc2)CCC1 (stereo not shown),-4.67%
8,COC(=O)c1sccc1N(Cc1ccc(F)cc1)S(C)(=O)=O,10.1%
9,COc1ccc(CSc2nc3ccncc3n2Cc2ccccc2F)cc1,2.65%
10,O=c1oc2ccc([N+](=O)[O-])cc2cc1-c1nc(-c2ccc(-c3ccccc3)cc2)cs1,-0.268%
11,OCCCCC/N=c1\cc(-c2ccccc2)oc2ccc(Cl)cc12,-3.21%
12,COc1ccc(C(=O)Cn2c(N3CCOCC3)nc3c2c(=O)n(C)c(=O)n3C)cc1,-2.56%
13,N=c1ccccn1CC(O)COc1ccccc1 (stereo not shown),0.0289%
14,COc1ccc(NC(=O)c2ccc(Cn3cc(Br)cn3)cc2)cc1OC,-2.99%
15,CCc1ccc2occ(CC(=O)Nc3sc4c(c3C(=O)NC)CCCC4)c2c1,-2.4%
16,CC(Oc1ccc(C=C2C(=O)c3ccccc3C2=O)cc1)C(=O)O (stereo not shown),-5.28%
17,O=C(Nc1cccc(C(F)(F)F)c1)c1ccc(Cn2cc(Br)cn2)o1,30.9%
18,O=C(c1coc2ccc(O)cc12)C1CC1,-6.83%
19,Cc1ccc(NC(=O)CCCC(=O)Nc2ccc(C)cc2C)c(C)c1,-0.725%
20,COC(=O)C(NC(=O)c1ccc(Cl)cc1Cl)C(C)C (stereo not shown),-3.26%
21,CCOC(=O)c1nc2nc(-c3ccccc3)cc(C(F)(F)F)n2n1,3.48%
22,Cc1ccc(NC(=O)CNc2ccc(OC(C)C)cc2)cc1,-2.21%
23,COc1ccc(NC(=O)CN(c2ccc(Br)cc2)S(C)(=O)=O)cc1OC,-1.95%
24,O=C(Nc1ccc(Cl)cc1Cl)Nc1ccccc1C(F)(F)F,4.54%
25,CC1(C)CC2=Nc3nn(-c4ccccc4)c(O)c3C(c3ccccc3Cl)C2=C(O)C1 (stereo not shown),-8.55%

row,SMILES,% Inhibition @ 10 uM
1,Cc1nnc(NC2CC2)c2c1nnn2Cc1ccccc1Cl,3.08%
2,O=c1oc2ccccc2c(O)c1[N+](=O)[O-],-4.35%
3,Cc1[nH]c2ccccc2c1/C=C/C(=O)c1ccncc1,6.96%
4,COc1ccc(/C=C/C(=O)O)cc1S(=O)(=O)N(C)CCO,21.7%
5,CSc1ccc(C2C(C#N)=C(N)N(c3nc[nH]n3)C3=C2C(=O)CCC3)cc1 (stereo not shown),0.343%
6,COc1ccc(N2CCN(Cc3ccccc3C(F)(F)F)CC2)cc1,3.9%
7,O=C(Nc1ccncc1)c1ccc(COc2ccccc2Cl)cc1,-0.25% and 3.53%
8,Oc1nc2ncccc2nc1-c1ccccc1,2.39%
9,CCOc1ccc(C2C(C#N)=C(N)Oc3c2c(C)nn3-c2ccccc2)cc1 (stereo not shown),-4.75%
10,CCS(=O)(=O)N1CCC(C(=O)NCCCN2CCCC(C)C2)CC1 (stereo not shown),0.514%
11,CCOc1ccc(NC(=O)c2ccccc2C(=O)O)cc1,-5.46%
12,COc1ccccc1C1C2=C(CC(C)(C)CC2=O)N(C)C2=C1C(=O)CC(C)(C)C2,-7.23%
13,Cc1nnc(N2CCCC(C(=O)NCCCOC(C)C)C2)c2nn(-c3ccccc3)c(C)c12 (stereo not shown),5.36%
14,C=CCOCC(O)CSCc1ccc(Cl)cc1 (stereo not shown),1.7%
15,N#CC1(NC(=O)[C@H](CC2CCCCC2)N[C@@H](c2cccc(-c3cccc(CO)c3)c2)C(F)(F)F)CC1,-4.82%
16,CCCn1nnc(C(=O)N2CCCCC2)c1-c1ccccc1O,-4.35%
17,CSC1=NC2(CCN(S(=O)(=O)Cc3ccccc3)CC2)N=C1c1ccccc1,-1.23%
18,Cc1ccc(OCCOCCN2CCNCC2)cc1C,-2.05%
19,CCN(CC)C(=O)/C(=C/c1ccccc1)NC(=O)c1ccco1,-4.7%
20,N#CCNC(=O)[C@H](CS(=O)(=O)Cc1ccccc1)NC(=O)c1ccc2ccccc2n1,1.35%
21,C=CCNC(=O)CN(CCc1ccccc1)S(=O)(=O)c1ccccc1,-1.6%
22,CC1CCCCN1S(=O)(=O)c1ccc(C(=O)Nc2ccccc2F)cc1 (stereo not shown),-0.171%
23,Clc1ccccc1OCc1nc(-c2ccc(-n3cccc3)cc2)no1,-1.86%
24,CNCC(O)COc1ccc(Cl)c(C)c1 (stereo not shown),-2.91%
25,CCOC(=O)c1c(C)nc(Nc2nc3ccccc3o2)nc1CSc1ccc(C)cc1,5.5%

row,SMILES,% Inhibition @ 10 uM
1,CC(=O)N/C(=C/c1ccc2c(c1)OCO2)C(=O)NC(Cc1ccccc1)C(=O)O (stereo not shown),-4.7%
2,O=C1C2CCCCN2C(=O)N1CCCN1CCN(c2cccc(C(F)(F)F)c2)CC1 (stereo not shown),1.39%
3,Nc1cccnc1NCc1ccccc1,2.34%
4,CCC(C)(C)C1CCc2c(sc(NC(=O)c3cc(OC)cc(OC)c3)c2C(N)=O)C1 (stereo not shown),6.39%
5,COc1cccc2c1OC(CCSC)N1N=C(c3cc(Cl)ccc3O)CC21 (stereo not shown),-1.68%
6,O=C(O)c1[nH]cc2c3cccnc3c3ncccc3c12,0.245%
7,COc1ccccc1N1CCN(Cc2ccccc2C(F)(F)F)CC1,-3.99%
8,CC(=O)N1CCc2c([nH]c3ccccc23)C1c1ccc2c(c1)OCO2 (stereo not shown),-3.44%
9,CCOc1ccc(-c2cnc(NCc3cc(OC)ccc3OC)n2C)cc1,-2.91%
10,COc1ccccc1-n1c(S)nnc1CNC(=O)c1cc(OC)c(OC)c(OC)c1,6.23%
11,O=C(Cc1ccc(F)cc1)NCCn1ccc2ccccc21,3.04%
12,COCc1nc2ccccc2n1CCCOc1cccc(C)c1,-0.551%
13,O=C(NCCc1ccccc1)C1c2ccccc2C(=O)N1CCc1ccccc1 (stereo not shown),1.76%
14,Cc1nc2c3ccccc3nc(SCc3ccc(Cl)cc3)n2n1,-6.64%
15,COC(F)(C(=O)Nc1cc(Br)cc2cccnc12)C(F)(F)F (stereo not shown),5.14%
16,CC1=C(C#N)C(c2ccc(Cl)c(Cl)c2)C2=C(O)CC(C)(C)CC2=N1 (stereo not shown),5.31%
17,O=c1[nH]n(CN2CCOCC2)c(=O)c2ccccc12,-3.12%
18,Cc1oc2cc3c(C(=O)N4CCN(C)CC4)c(C)oc3cc2c1C(=O)N1CCN(C)CC1,-1.43%
19,COc1cc2c(cc1OC)C(C)(C(C)(C)O)NCC2 (stereo not shown),1.64%
20,CCOC(=O)c1c(C)[nH]c(C)c1S(=O)(=O)Nc1ccc(C)cn1,1.23%
21,O=S(=O)(c1cccc2c(S(=O)(=O)N3CCCC3)cccc12)N1CCCC1,1.29%
22,CC(=O)N(C)c1ccc(NC(=O)COc2ccc3ccccc3c2)cc1,-0.366%
23,Cc1ccccc1NC(=O)CN(c1cccc(Br)c1)S(C)(=O)=O,-2.66%
24,Cc1ccc(N(CC(=O)N2CCN(C)CC2)S(=O)(=O)c2ccc(Cl)cc2)cc1C,-0.116%
25,Cn1c(=O)c2c(nc(NCc3ccccc3)n2CC(=O)NCc2ccccc2)n(C)c1=O,-6.78%

row,SMILES,% Inhibition @ 10 uM
1,COc1ccc([N+](=O)[O-])cc1NC1CCCCC1,-7.11%
2,Cc1ccc(C(=O)NC2(C(F)(F)F)N=C3SCCN3C2=O)cc1 (stereo not shown),-7.35%
3,COc1cccc(C(=O)Nc2ccc(Cc3ccc(N)cc3)cc2)c1OC,0.163%
4,C=CCOC(=O)C1=C(C)N=C(C)/C(=C(/O)OCC=C)C1c1ccc(C(=O)OC)cc1 (stereo not shown),-1.93%
5,CCOc1ccc(-c2csc(/C(C#N)=C/c3ccc(C)cc3)n2)cc1,-2.42%
6,COc1ccc(NC(=O)C2=C(C)Nc3ncnn3C2c2cccc(Br)c2)cc1 (stereo not shown),-1.16%
7,Cc1ccc(OCC(=O)Nc2cccc(O)c2)cc1,-6.82%
8,Cc1cc(C)cc(NC(=O)CCC(=O)O)c1,4.16%
9,CCCN1C(=O)c2n[nH]c(C)c2C1c1ccccn1 (stereo not shown),5.43%
10,O=C(NCc1cccnc1)c1ccc(C(=O)NCc2cccnc2)cc1,7.09%
11,COc1ccc(CC(=O)n2nc(-c3ccccc3)nc2NCc2ccccc2Cl)cc1OC,0.628%
12,Cc1ccc(CNC(=O)c2sccc2-n2cccc2)cc1,21.1%
13,COc1cccc(C(=O)Nc2ccc(F)cc2F)c1,-1.07%
14,Nc1ccc(N2CCN(c3c(F)c(F)nc(F)c3F)CC2)cc1,4.01%
15,Cc1ccc(-c2nc(CS(=O)CC(=O)NCCCN3CC(C)CC(C)C3)c(C)o2)cc1 (stereo not shown),3.79%
16,Cc1ccc(NC(=O)CCC(C(=O)O)N2C(=O)c3ccccc3C2=O)cc1 (stereo not shown),1.64%
17,O=C(C1CCN(S(=O)(=O)c2cc(Cl)ccc2Cl)CC1)N1CCN(Cc2ccccc2)CC1,-8.36%
18,CN1C(=O)CC(N2CCN(c3ccccn3)CC2)C1=O (stereo not shown),-2.51%
19,CC1=NC2=C(C(=O)CC(C)(C)C2)C(c2ccccc2C)/C1=C(\O)OC(C)C (stereo not shown),2.38%
20,COC(=O)c1ccc(CN2CC(=O)N3CCCCC3C2=O)cc1 (stereo not shown),-3.53%
21,Cc1c(Cl)cccc1N1C(N)=C(C#N)C(c2cccnc2)C2=C1CC(C)(C)CC2=O (stereo not shown),-0.759%
22,N=c1c(S(=O)(=O)c2ccccc2)cc2c(=O)n3ccccc3nc2n1CC1CCCO1 (stereo not shown),-8.72%
23,O=C(O)c1cc(C(=O)O)cc(N2C(=O)C3C4c5ccccc5C(c5ccccc54)C3C2=O)c1 (stereo not shown),5.92%
24,COc1cccc(OCC(O)CN2CC(C)CC(C)C2)c1 (stereo not shown),2.6%
25,O=C(NCc1ccccc1)c1cccc(N2C(=O)C3C4C=CC(C5CC45)C3C2=O)c1 (stereo not shown),-0.661%
